# Test results taken from PubChem BioAssay AID1508624 (National Center for Advancing Translational Sciences (NCATS), 2021).
# The whole screen tested about 48,000 compounds, of which about 120 (0.25%) were called active. About 4% were inconclusive and are not listed. Calls follow the shape of the dose curve; as a rule, active = well fitted activation curve with a large enough effect; inconclusive = small, poorly fitted or top-dose-only effect, or another doubt; inactive = no such curve, though single readings can be large or run the other way. The list shows a part of the results.
# Experiment: Primary qHTS for Identification of Small Molecule Activators of Huntingtin-Antisense Promoter Activity; also: nearly all actives have a fitted effect of over 55% in size
# Conditions: HEK293 HTT-AS promoter firefly luciferase reporter, 24 h; series mostly up to 57.5 µM; activity change, positive = activation: at the top concentration
# Procedure, shortened: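 Firefly luciferase readout (Dual-Glo, 10 min RT) after 24 h, 37 °C compound exposure (final up to 57.5 uM) of HEK293 reporter cells cultured 24 h beforehand; PTC124 at 50 uM final as control inhibitor; activity scaled vehicle 0%, zero RLU -100%.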
# Potency is read from the fitted curve at half-maximal effect.
SMILES,"activity change, positive = activation",Potency
COc1ccc2c(c1)sc1ncc(C(=O)NCc3ccc(OC(C)C)cc3)c(=O)n12,inactive: -8.52%,
COc1ccc(-c2cc(C(F)(F)F)nc(SCCC(=O)Nc3cc(C)ccc3O)n2)cc1,inactive: -56.7%,
O=S1(=O)c2ccccc2N(Cc2cccc(C(F)(F)F)c2)c2ccccc21,inactive: -43.5%,
CCCCN(CCCC)CCNC(=O)Cn1nc(CC)n2c(cc3sc(C)cc32)c1=O,inactive: -11.1%,
Cc1cccc(NC(=O)Cn2c(=O)n(CCCS(=O)(=O)C3CCCCC3)c(=O)c3ccccc32)c1,inactive: -25.3%,
CCOCCCNC(=O)c1[nH]c2cc(C)ccc2c1Sc1ccc(Cl)cc1,inactive: -7.79%,
CCOC(=O)c1ccc(-n2c(C)nc3c(cnn3-c3ccc(Cl)cc3)c2=O)cc1,inactive: -19%,
CCc1cncnc1N1CCN(Cc2nc3ccc(C(F)(F)F)cc3[nH]2)CC1,inactive: -43.1%,
COc1ccc(CCNC(=O)c2c(O)nc3c(C)cccn3c2=O)cc1,inactive: 26.2%,
Cc1ccc(-c2onc(C)c2C)cc1S(=O)(=O)N1c2ccccc2CC1C (stereo unspecified),inactive: -88.7%,
CCOCCc1nn2c(=O)cc(COC(=O)c3ccccc3NC(=O)C3CCCCC3)nc2s1,inactive: -24.6%,
O=C(NCCn1cc(SCc2ccc(Cl)cc2)c2ccccc21)c1cccs1,inactive: -38.5%,
COc1cccc(-c2nc(SCC(=O)Nc3ccc4c(c3)OCCO4)c(-c3ccccc3)[nH]2)c1,inactive: -5.58%,
COc1cc(OC)c(N(C)C(=O)CCNC(=O)Cn2cnc3ccccc3c2=O)cc1Cl,inactive: -8.62%,
CN(C)CCNC(=O)Cn1c(=O)c2cccn2c2ccc(F)cc21,inactive: -9.14%,
Cc1ccc(C)c(CN2C(=O)c3ccccc3S(=O)(=O)c3ccc(C(=O)N4CCN(c5ccccc5)CC4)cc32)c1,inactive: -19.4%,
C#CCSc1nc2sc3c(c2c(=O)n1Cc1ccccc1)CCCC3,inactive: -33.5%,
COc1ccccc1OCCSc1nc2ccccc2n1CC(=O)N1CCOCC1,inactive: 7.28%,
COc1ccc(NC(=O)c2sc3nc(-c4ccc(OC)cc4)cc(C(F)(F)F)c3c2N)cc1,inactive: -9.54%,
Cc1ccccc1Nc1c(-c2ccco2)nc2c(C)cccn12,inactive: -10.4%,
CC1CCCCN1S(=O)(=O)c1ccc(C(=O)Nc2sc3c(c2C(N)=O)CC(C)(C)NC3(C)C)cc1 (stereo unspecified),inactive: -10%,
Cc1ccc(NC(=O)CCS(=O)(=O)c2cccc3nonc23)cc1Cl,inactive: -24.2%,
Cc1ccc(CS(=O)(=O)c2ncc(Cl)c(C(=O)Nc3nc4ccc(C)cc4s3)n2)cc1,inactive: -85.8%,

SMILES,"activity change, positive = activation",Potency
Cc1n[nH]c(C)c1S(=O)(=O)N(CC(=O)Nc1ccc(C(F)(F)F)cc1)c1ccc(C(C)C)cc1,inactive: -58.7%,
CCCOc1ccc(C(=O)Nc2ccc3nn(-c4ccc(OC)c(Cl)c4)nc3c2)cc1,inactive: 3.05%,
CCOc1ccc(-c2nnc(SCC(=O)Nc3cc(F)ccc3F)o2)cc1,inactive: -8.39%,
COCCCNC(=O)c1ccc(Cn2c(=O)c3ccccc3n(Cc3ccccc3C)c2=O)cc1,inactive: -43.1%,
COc1ccc(NC(=O)c2cnn(-c3ccc(F)cc3F)c2C2CCN(C(=O)OC(C)(C)C)CC2)cc1Cl,inactive: -26.4%,
COc1ccc(CCNC(=O)c2ccc3nc(Cc4ccccc4)oc3c2)cc1OC,inactive: -27.4%,
Nc1nonc1-c1nc2ccccc2n1Cc1c(Cl)cccc1Cl,inactive: -23.1%,
COc1ccc(N(CC(=O)NCCc2ccccc2)S(=O)(=O)c2ccc(OC)c(OC)c2)cc1,"inactive: 6.19% [at 11.5 µM, percent change from vehicle, -100% = no light]",
O=C(C1CCCN(S(=O)(=O)c2cccc3nonc23)C1)N1CCN(c2ccccc2Cl)CC1 (stereo unspecified),inactive: -36.6%,
COc1ccc(CNC(=O)c2ccc(NC(=O)N3CCSc4ncccc43)cc2)cc1OC,inactive: 1.46%,
CCOC(=O)c1c(NC(=O)CCCOc2ccc(Cl)cc2)sc2c1CCC2,inactive: -17.8%,
COc1ccc(OC)c(-c2noc(N3CCN(c4ccc(C(C)=O)cc4)CC3)n2)c1,inactive: -33.9%,
COc1ccc(-c2oc3ncn4nc(COc5ccc(C)cc5)nc4c3c2-c2ccc(OC)cc2)cc1,"inactive: 10.1% [at 11.5 µM, percent change from vehicle, -100% = no light]",
COc1ccc(Cc2ccc(NC(N)=O)cc2)cc1-c1cccc(Cl)c1,inactive: -30.7%,
CCOC(=O)Cn1c(=O)oc2cc(S(=O)(=O)N3CCN(c4ccccc4OC)CC3)ccc21,inactive: -16.6%,
O=C(NCCc1csc2nc(-c3ccccc3F)nn12)c1ccccc1C(F)(F)F,inactive: -8.59%,
COc1cccc(CN(C(=O)c2ccc(C(C)(C)C)cc2)C2CCS(=O)(=O)C2)c1 (stereo unspecified),inactive: -15.6%,
Cc1ccc(Nc2ncnc3c2cnn3-c2ccc(C)cc2)cc1,inactive: 7.38%,
CC(=O)Nc1ccc(NS(=O)(=O)c2cc(Br)cc3c2N(C(=O)C2CC2)CC3)cc1,inactive: -21.1%,
COc1ccc(OCC(=O)N(Cc2cccc(OC)c2)C2CCS(=O)(=O)C2)cc1 (stereo unspecified),inactive: -4.76%,
COc1cc(OC)c(NC(=O)c2cc(C(C)=O)n3ccccc23)cc1Cl,inactive: -41.9%,
CCOc1ccccc1NC(=O)CSc1ccc2nnc(CCNS(=O)(=O)c3ccccc3)n2n1,inactive: -13%,
COc1ccc(C)cc1NS(=O)(=O)c1c(C)nc2sc(C)cn2c1=O,inactive: -23.8%,

SMILES,"activity change, positive = activation",Potency
COCCNC(=O)CCCn1c(=O)[nH]c2ccsc2c1=O,inactive: 1.24%,
Cc1ccc(Cl)cc1N(C)C(=O)c1noc2c1CCCCC2,inactive: -19.1%,
COc1ccccc1NC(=O)C1=C(C)Nc2nc(SCC(=O)c3ccc(C)cc3)nn2C1c1ccccc1C (stereo unspecified),inactive: 2.53%,
COc1ccc(NC(=O)c2sc3nc(C)c(C(=O)Nc4ccc(C)cc4C)c(-c4ccccc4Cl)c3c2N)cc1,inactive: -20.3%,
COc1ccc(-n2cc(C(=O)N(C)c3cc(C)ccc3OC)c3ccccc3c2=O)cc1,inactive: -29.1%,
CSCCC(NS(=O)(=O)c1ccc2c(c1)oc(=O)n2C)C(=O)NCc1ccc(F)cc1 (stereo unspecified),inactive: -0.282%,
Cc1nn(Cc2noc(C(=O)NCc3cccc(F)c3)n2)c(C)c1Br,inactive: -13.2%,
CCOc1ccc(NS(=O)(=O)c2ccc3[nH]cc(C(=O)NCCOC)c(=O)c3c2)cc1,inactive: -12%,
CN(C)CCN(Cc1ccccc1)S(=O)(=O)c1ccc(-c2cc(C(F)(F)F)on2)s1,inactive: -35.9%,
CN(C)CCNC(=O)CCCn1c(=O)c2cccn2c2ccccc21,inactive: -5.59%,
COc1ccc(CCn2c(=O)[nH]c3cc(C(=O)N4CCN(c5ccccc5)CC4)ccc3c2=O)cc1OC,inactive: -31.4%,
Cc1ccc(NC(=O)/C(C#N)=C/c2cc(C)n(-c3ccc(Br)cc3)c2C)cc1C,inactive: -85.3%,
COCCNC(=O)CCCN1C(=O)CCn2nc(-c3cccn3C)cc21,inactive: 6.87%,
Cc1ccc(CCNC(=O)c2ccc(CS(=O)(=O)c3ccc(Cl)cc3)o2)cc1,inactive: -2.77%,
CCN1C(=O)C2(c3ccccc31)c1c(oc3ccc(C)cc3c1=O)C(=O)N2CCCOC(C)C (stereo unspecified),inactive: -13.4%,
Cc1cc2ccccc2n1CCNC(=O)c1ccc(F)cc1,inactive: -17.2%,
Fc1ccc(-c2cn3cc(Cc4ccccc4Cl)sc3n2)cc1,inactive: -11.5%,
Cc1cc(O)c(C(c2ccc(Cl)cc2)N2CCN(c3ccccc3)CC2)c(=O)n1Cc1ccco1 (stereo unspecified),inactive: -0.795%,
CC1=C(c2ccc(C)cc2)S(=O)(=O)N(Cc2ccc(C(=O)Nc3ccccc3C)cc2)C1=O,inactive: -38.6%,
COc1ccc(NC(=O)Cn2c(=O)oc3cc(S(=O)(=O)N4CCCCC4C)ccc32)cc1 (stereo unspecified),inactive: -24.1%,
O=C(c1ccccc1F)N1CCC(c2nc3c(nnn3Cc3cccc(F)c3)c(=O)[nH]2)CC1,inactive: -11.4%,
Cc1oc(-c2ccc(C(=O)NC(C)c3ccccc3)cc2)nc1CS(=O)(=O)c1ccccc1 (stereo unspecified),inactive: -6.2%,
COC(=O)c1ccccc1NC(=O)CCCN1C(=O)C(c2ccccc2)Oc2cccnc21 (stereo unspecified),inactive: -22.3%,

SMILES,"activity change, positive = activation",Potency
Cc1nc2ccccc2n1CCc1nc2c3ccccc3nc(SCC(=O)Nc3cccc(C(F)(F)F)c3)n2n1,inactive: -23%,
CCc1ccc2ncc(S(=O)(=O)c3ccc(Cl)cc3)c(N3CCN(CC)CC3)c2c1,inactive: -27.8%,
COc1ccc(Br)cc1Cn1nnc(C(=O)Nc2ccc(C)cc2C)c1N,inactive: -33.8%,
CCCCOc1ccc(C(=O)N2CC(=O)Nc3ccc(Br)cc3C2c2ccc(F)cc2)cc1 (stereo unspecified),inactive: -20%,
Cc1cc(C)nc(NS(=O)(=O)c2ccc(NC(=O)c3ccccc3O)cc2)n1,inactive: -20%,
COc1ccc2c(Sc3ccccc3)c(C(=O)NCC(C)c3ccccc3)[nH]c2c1 (stereo unspecified),inactive: 13.6%,
Cc1cc(C)cc(-n2c(SCC(=O)N3CCCC3)nc3c([nH]c4ccccc43)c2=O)c1,inactive: -6.7%,
O=C(CCC1N=C2c3ccccc3N=C(SCc3ccccc3Cl)N2C1=O)NCCc1ccccc1 (stereo unspecified),inactive: 10.9%,
Cn1c(=O)n(-c2ccc3c(c2)OCO3)c2nc(-c3ccc(Cl)cc3)nc(C(N)=O)c21,inactive: -12.3%,
Cc1ccccc1NC(=O)CSc1nc(-c2ccc(F)cc2)nc2c1Cc1ccccc1O2,inactive: 17.6%,
CC1=C(C(=O)Nc2cccnc2)C(c2ccccc2)n2nc(SCc3ccccc3)nc2N1 (stereo unspecified),inactive: -8.2%,
O=C(Cn1nc(-c2ccccc2)c2cnc3ccccc3c21)Nc1ccccc1,inactive: -12.2%,
Cc1ccc(C)c(NC(=O)CN2C(=O)C3(SCC(=O)N3c3ccc(C)c(C)c3)c3ccccc32)c1 (stereo unspecified),inactive: -20.6%,
CCC(=O)N1CCc2cc(CNS(=O)(=O)c3c(C)cc(C)cc3C)ccc21,inactive: -25.1%,
Cc1ccc(Cn2nnc3sc4c(c3c2=O)CCC(C)C4)cc1 (stereo unspecified),inactive: -14.6%,
CCCCOc1ccc(C(=O)Nc2ccc(S(=O)(=O)Nc3nc(C)cc(C)n3)cc2)cc1,inactive: -39%,
CC1CCc2nc3ncn(Cc4ccc(Cl)cc4)c(=O)c3cc2C1 (stereo unspecified),,active: 3.16 µM
Cc1nnc(NCc2ccc(Cl)cc2)c2c1nnn2Cc1ccc(F)cc1,inactive: 8.28%,
Cc1ccc2nc(-c3ccc(Cl)c(NC(=O)c4ccc5c(c4)OCCO5)c3)oc2c1,inactive: 21.5%,
COC(=O)c1ccccc1NC(=O)c1cc(-c2ccc(Cl)cc2)on1,inactive: -1.17%,
CCCCCCNc1nc2c(c(=O)n(C)c(=O)n2C)n1Cc1cccc(C)c1,inactive: -22.9%,
COCCCNC(=O)c1ccc(Cn2c(=O)c3ccccc3n(CC(=O)Nc3c(C)cccc3C)c2=O)cc1,inactive: -8.28%,
